This passage reports survival results from PubChem BioAssay AID463173 (ICCB-Longwood Screening Facility, Harvard Medical School, 2010).

The campaign covered roughly 52,000 compounds. About 4,300 (8.3%) were called active. No stated cut-off is given here; in the data, active means survival mostly below about 52% (no sharp cut-off); inactive means mostly above about 56%. The list shows a part of the results.

The test system of this assay is DeltatarO mutant. Put plainly: S. aureus survival, RN4220 and DeltatarO strains – OD600, teichoic acid synthesis inhibitors, primary screen (AID 463173). The settings on record: S. aureus RN4220 wild type/DeltatarO growth, OD600, 18 h, active compounds read low, screened at 18.75 µg/mL (by protocol).
As to `CC1CCCN(c2ncnc3c2nnn3C)C1` (stereo unspecified), the survival was inactive: 75%.
In the case of `CCC1CN(C(=O)N2CCC(C(=O)NCc3ccccc3F)CC2)c2ccccc2O1` (stereo unspecified) it was inactive: 72%.
For `O=C(Nc1ccc(C(F)(F)F)cc1)C1(c2cccs2)CCOCC1`, the survival is inactive: 87%.
The same measure for `CCCOC(=O)c1cccc(Nc2nc(C(=O)OCC)nc3ccccc23)c1`: active: 20%; for `COc1ccc(CNC(=O)Cc2ccc(NC(=O)N3CCCCc4ccccc43)cc2)cc1`: inactive: 67%; for `CCOc1ccc(NC(=O)c2cc(S(=O)(=O)N3CCC(C)CC3)cn2C)cc1`: inactive: 112%.
Take `O=C(Nc1nnc2n1CCS2)c1cc(C(F)(F)F)cc(C(F)(F)F)c1`: the survival is inactive: 95%.
Take `CCOc1ccc(N(C)S(=O)(=O)c2cc(-c3cnc(C)o3)ccc2OC)cc1`: the survival was inactive: 68%.
The same measure for `CN(C)S(=O)(=O)c1ccc2c(c1)N(CC(=O)N1CCC(C(N)=O)CC1)CCS2`: inactive: 88%; for `COc1ccc(/C=C/C(=O)Nc2cccc(F)c2)cc1`: inactive: 50%.
With `Cc1ccc(C)c(NC(=O)Cn2cc(S(=O)(=O)c3ccc(F)cc3)c(=O)c3cc(F)ccc32)c1`, the survival was inactive: 87%.
On to `Cc1cc(=O)n2[nH]c(CC(=O)O)nc2n1`, for which the survival was inactive: 98%.
On to `COc1ccc(CNC(=O)C2CCN(c3nnc(C)c4c(C)n(-c5ccc(C)cc5)nc34)CC2)cc1`, for which the survival is inactive: 105%.
Regarding `CCc1ccc(NC(=O)c2sc3nc(C)cc(C)c3c2NC(=O)c2ccccc2)cc1`, the survival was inactive: 83%.
`COc1ccc(OC)c(-c2cc(C(=O)NCc3ccc(Cl)cc3)no2)c1`: the survival was inactive: 47%.
As to `Cc1ccc(-c2nn3c(C)nnc3c3ccccc23)cc1S(=O)(=O)NC(C)(C)CO`, the survival was inactive: 74%.
In the case of `COc1cccc(CNC(=O)Nc2ccc3c(c2)N(C)C(=O)c2ccccc2S3)c1`, the survival is active: 42%.
For `Cc1ccccc1NC(=O)C1CCN(S(=O)(=O)c2cccc3nonc23)CC1`, the survival was inactive: 120%.
As for `Nc1ccc(-c2nc3c(Cl)cccc3[nH]2)cc1`, the survival was inactive: 97%.
Turning to `Cc1oc(-c2ccccc2)nc1Cn1c(=O)cc(-c2ccccc2)c2c(C)nn(C)c21`, the survival was inactive: 92%.
With `COc1ccccc1N1CCN(C(=O)c2ccco2)CC1`, the survival was inactive: 104%.
Take `O=C(Nc1c[nH]c(=O)[nH]c1=O)c1ccco1`: the survival is inactive: 97%.
Consider `CCN(C(=O)Cn1cnc2c1c(=O)n(C)c(=O)n2C)c1ccccc1C`, for which the survival is inactive: 87%.
Turning to `Cc1ccc(NC(=O)c2cnc(SCC(=O)N3CCCc4ccccc43)n(C)c2=O)cc1C`, the survival was inactive: 85%.
The same measure for `Cn1c(=O)c2c(-c3ccccc3)n3c(c2n(C)c1=O)C(c1cccc([N+](=O)[O-])c1)Nc1ccccc1-3` (stereo unspecified): inactive: 53%; for `Cc1cccc(C)c1NC(=O)Cn1c(=O)n(CCC(=O)NCc2ccc3c(c2)OCO3)c(=O)c2sccc21`: inactive: 90%; for `COc1ccc(-c2cc(C(F)(F)F)n3nc(C(=O)Nc4ccc(Cl)cc4C(F)(F)F)cc3n2)cc1OC`: inactive: 93%.
`Cc1ccc(NC(=O)C2CCCN(c3nc4ccccc4s3)C2)c(C)c1` (stereo unspecified): the survival is inactive: 76%.
As to `CCc1ccc2[nH]c(=O)c(C(c3nnnn3C(C)(C)C)N3CCCCC3)cc2c1` (stereo unspecified), the survival is inactive: 95%.
Regarding `COc1ccc(C(=O)N2CCN(CCc3ccccn3)CC2)cc1`, the survival was inactive: 109%.
For the molecule `O=C(CCS(=O)(=O)c1nc(-c2ccc3c(c2)OCO3)cc(C(F)(F)F)n1)Nc1ccccc1C(F)(F)F`, the survival was inactive: 71%.
With `COC(=O)Cn1c(SCCOc2ccccc2Cl)nc2ccccc21`, the survival is active: 42%.
As for `COc1ccc(C(C)=O)cc1CSc1nc(NCc2ccc(Cl)cc2)c2ccccc2n1`, the survival is active: 8%.
The same measure for `CN(C)c1ccc(/C=N/NC(=O)c2ccccc2)cc1`: inactive: 95%; for `COc1ccc(-c2cc(C(F)(F)F)n3nc(C(=O)Nc4cccc(Cl)c4Cl)cc3n2)cc1OC`: inactive: 123%.
With `CCOC(=O)c1cc(-c2ccc(C)cc2)n(CC(=O)Nc2cc(C)ccc2C)c1C`, the survival was inactive: 90%.
For `CN(C)S(=O)(=O)c1ccc2c(c1)oc(=O)n2C`, the survival is inactive: 100%.
Consider `CC(C)OC(=O)c1ccc(N)cc1`, for which the survival was inactive: 89%.
For `CCc1ccccc1NC(=O)c1cc(S(=O)(=O)N2CCC(C)CC2)cn1C`, the survival is inactive: 49%.
`CC(C)CN(CC(C)C)c1nnc(NC(=O)Nc2cccc(C(F)(F)F)c2)s1`: the survival is inactive: 88%.
Regarding `COc1ccc(OCC(=O)Nc2ccc3c(c2)N(C)C(=O)c2ccccc2S3)cc1`, the survival is inactive: 88%.
As for `Cc1ccc2nc(Cl)c3cc(C(=O)N4CCCC(C)C4)sc3c2c1` (stereo unspecified), the survival was active: -7%.
For the molecule `CCn1c(=O)c2cc(C(=O)NCCc3ccc(OC)c(OC)c3)sc2c2ccccc21`, the survival was active: 42%.
Turning to `CCOc1ccc(CNC(=O)c2ccc(Sc3ccc(C)cc3)c(N)c2)cc1OC`, the survival was inactive: 91%.
With `COc1ccc(-c2cc(C(=O)Nc3c(C(=O)c4ccc(C)c(F)c4)oc4ccccc34)no2)cc1`, the survival was inactive: 55%.
The same measure for `CC(C)NC(=O)Cn1c(=O)nc(-c2ccccc2)c2ccccc21`: inactive: 89%; for `CCOc1ccc(CCNC(=O)c2ccc(C)c(-n3cnc4cccnc43)c2)cc1`: inactive: 94%; for `Cc1ccc(S(=O)(=O)c2nc(-c3ccco3)oc2SCC(=O)c2ccc(Cl)cc2)cc1`: inactive: 63%.
As to `O=C(CSc1ncn[nH]1)Nc1nccs1`, the survival is inactive: 90%.
In the case of `CCOc1ccc(Nc2cc(C)c(C#N)c3nc4ccccc4n23)cc1` it was inactive: 88%.
In the case of `Cc1cccc(N(C)C(=O)CS(=O)(=O)c2cccc3nsnc23)c1`, the survival was inactive: 85%.
In the case of `Cc1ccc(C(C)C)c(OCc2ccc(C(=O)Nc3ccc(S(N)(=O)=O)cc3C)o2)c1` it was inactive: 49%.
Regarding `COc1cccc(CNC(=O)c2ccc3c(Cl)c4c(nc3c2)CCCC4)c1`, the survival was active: 49%.
As for `O=C(Nc1cccnc1)c1cccs1`, the survival was inactive: 80%.
On to `COc1ccc(C(=O)NCc2nnc(SCC(=O)Nc3ccc(C)cc3)n2-c2ccccc2)cc1`, for which the survival was inactive: 119%.
`CCc1ccc(CNC(=O)c2ccc(NC(=O)N3CCSc4ncccc43)cc2)cc1`: the survival is inactive: 70%.
As to `CCc1nc2nc(C)cc(Nc3cc(Cl)ccc3OC)n2n1`, the survival was inactive: 69%.
With `O=C(CSc1nc2ccccc2c(=O)n1Cc1ccco1)N(c1ccccc1)c1ccccc1`, the survival was inactive: 102%.
For `Cc1ccc(S(=O)(=O)N2CCC(c3nnc(-c4cccc(C)c4)o3)CC2)cc1`, the survival was inactive: 76%.
As for `Cc1cc(C(F)(F)F)n2nc(C(N)=O)cc2n1`, the survival is inactive: 89%.
Turning to `CCOc1ccc(CNC(=O)CCc2c(C)nn(-c3ccc(N4CCOCC4)nn3)c2C)cc1`, the survival is inactive: 72%.
The same measure for `O=c1[nH]c2ccc(NS(=O)(=O)c3ccc(F)cc3)cc2s1`: inactive: 99%; for `CCOc1ccc2nc(N3CCN(C(=O)C(C)C)CC3)sc2c1`: inactive: 84%; for `COc1ccccc1/C=N\NC(N)=S`: inactive: 60%.
As for `CC1CCN(c2nn3c(=O)c(C(=O)NCCc4ccc(Cl)cc4)cnc3s2)CC1`, the survival is inactive: 69%.
Regarding `COc1ccc2oc(=O)cc(CN3CCN(C(=O)c4ccccc4Br)CC3)c2c1`, the survival was active: 44%.
The same measure for `O=C(OCc1ccco1)c1ccc2c(c1)N(Cc1ccc([N+](=O)[O-])cc1)C(=O)c1ccccc1S2`: inactive: 83%.
In the case of `c1ccc(N(c2ccccc2)c2nc(-n3nnc4ccccc43)nc(-n3nnc4ccccc43)n2)cc1`, the survival is inactive: 82%.
For `Cc1nc(-n2nc(C)c(CCC(C)C)c2C)sc1C(=O)Nc1cccc(Cl)c1C`, the survival was active: 56%.
For `CCOC(=O)c1c(NC(=O)c2ccccc2C)sc2c1CCCC2`, the survival was active: 12%.
On to `Oc1ccccc1-c1nc(/C=C/c2ccccc2)nn1-c1ccccc1`, for which the survival was active: 7%.
Consider `O=C(CN1C(=O)COc2ccc(S(=O)(=O)N3CCCC3)cc21)NCCc1ccc(Cl)cc1`, for which the survival was inactive: 120%.
For the molecule `COc1ccc(CCNC(=O)Cn2c(=O)nc(-c3ccccc3F)c3cc(Cl)ccc32)cc1OC`, the survival is inactive: 91%.
The same measure for `O=C(C1CCC(CNS(=O)(=O)c2cccs2)CC1)N1CCN(c2ccc(Cl)cc2)CC1` (stereo unspecified): inactive: 60%.
Turning to `Cc1ccc2[nH]c(CSc3nnc(C)s3)cc(=O)c2c1`, the survival was inactive: 81%.
On to `Cc1cc(N)c(O)cc1C`, for which the survival was inactive: 61%.
The same measure for `COc1ccc(NC(=O)CSc2nnc(-c3nonc3NC(C)=O)n2C)cc1Cl`: inactive: 55%; for `Cc1ccccc1-n1c2nc(=O)[nH]c(=O)c-2cc2c(Cl)cccc21`: inactive: 73%.
The same measure for `O=c1cc2nc(-c3ccccc3F)nc(SCc3ccc(Br)cc3)n2[nH]1`: active: 0%; for `Cc1cccc(Cn2c(SCc3ccc(C(=O)NCc4cccs4)cc3)nc3cccnc32)c1`: inactive: 92%; for `CC(C)c1ccc(NC(=O)c2cc(S(=O)(=O)NC3CCCCC3)ccc2F)cc1`: inactive: 102%.
On to `COCCCN1C(=O)c2[nH]nc(-c3ccccc3O)c2C1c1ccc(OC)cc1` (stereo unspecified), for which the survival is inactive: 53%.
`COc1ccc(Cl)cc1NC(=O)COC(=O)CC(C)(C)CC1=NS(=O)(=O)c2ccccc2N1`: the survival is inactive: 70%.
The same measure for `COC(=O)c1cc(C)nc2c1c(=O)nc(SCc1cccc(C(F)(F)F)c1)n2C1CC1`: inactive: 74%; for `CCN(CC)CCCNC(=O)C(C)n1nc(C)n2c(cc3occc32)c1=O` (stereo unspecified): inactive: 88%; for `Cc1c(Cl)cccc1NC(=O)CCn1cnnn1`: inactive: 83%.
For `CC1=C(C(=O)Nc2ccc(F)cc2)C(c2ccc(N(C)C)cc2)NC(=O)N1` (stereo unspecified), the survival is inactive: 140%.
As for `CCC1CN(C(=O)C2CCN(S(=O)(=O)c3c(C)noc3/C=C/c3ccc(C)cc3)CC2)c2cc(C)ccc2O1` (stereo unspecified), the survival was inactive: 78%.
`CCOc1ccc(CCNC(=O)Cn2ccc3cc(S(=O)(=O)N4CCCCCC4)ccc32)cc1`: the survival was inactive: 126%.
With `N=C1SCC(=O)N1c1nc(-c2ccccc2)cs1`, the survival is inactive: 75%.
On to `COc1ccc(NC(=O)C(=O)c2cc(C)n(-c3ccc(C)cc3)c2C)cc1Cl`, for which the survival was inactive: 56%.
